At least one read-out could not be matched to a standard name with certainty.
Assays:
Assay type in all cases: cell-based
[1] = test system: mouse bone marrow derived dendritic cells (mBMDC); experiment: IL-6 induction in mouse bone marrow derived dendritic cells (ELISA); conditions: titrated doses 312 nM to 10 μM, 18 h, Cmpd 1 set at 100
Procedure: The above assays were utilized to compare the derivatives of the lead pyrimidoindole for their ability to activate mouse and human TLR4. […] Each cytokine induction curve was first converted to a percent activity curve, and then the AUC of the percent activity curve was calculated. The process of converting to a percent activity curve allowed subtracting background and adjusting for plate-to-plate variation.
(§1) BMDC were prepared from C57BL/6 mice as described. See e.g., Wu, C. […] BMDC (10^5 cells per well) were plated in 96-well plates in 200 μL of complete RPMI1640 supplemented with 10% fetal calf serum (FCS; Sigma Aldrich), 100 U/mL penicillin, and 100 μg/mL streptomycin (Invitrogen). […] After 18 h incubation, the cell culture supernatants were collected. LPS (purified LPS, Invivogen, San Diego, Calif.) or MPLA (1 μg/mL synthetic MPLA, Invivogen, San Diego, Calif.) were used as positive controls. […] The AUC was calculated from BMDC dose-response curves using Prism 5 (GraphPad, San Diego). Each cytokine induction curve was first converted to a percent activity curve, and then the AUC of the percent activity curve was calculated. The process of converting to a percent activity curve allowed subtracting background and adjusting for plate-to-plate variation.

[2] = test system: mouse bone marrow derived dendritic cells (mBMDC); experiment: IP-10 induction in mBMDC (ELISA), surrogate marker of type I IFN; conditions: all compounds tested at 5 μM, Cmpd 1 set at 100
Procedure: In addition to the production of inflammatory cytokines (IL-6, IL-12, TNFα, etc.) mediated by NFκB activation, TLR4 signaling can result in the production of type I interferons, a feature that is not only important for activation of dendritic cells leading to good adjuvant activity, but would also be important for rapid defense against a variety of pathogens, particularly viruses. […] To determine the relative ability of all compounds to induce the production of type 1 IFN, each was evaluated in mouse bone marrow derived dendritic cells as shown in Tables 1-3.
as §1
In addition, the levels of IP-10, a surrogate marker of type I IFN, in the supernatants were determined by ELISA (R&D Systems, Minneapolis, Minn.).

[3] = test system: human peripheral blood mononuclear cells (hPBMC); experiment: IL-8 release from human PBMC (ELISA); conditions: all compounds tested at 10 μM, Cmpd 1 set at 100

Compound: O=C(CSc1nc2c([nH]c3ccccc32)c(=O)n1-c1ccccc1)NC1CCCCCC1 [Compound 9, N-Cycloheptyl-2-((4-oxo-3-phenyl-4,5-dihydro-3H-pyrimido[5,4-b]indol-2-yl)thio)acetamide]
- mouse IL-6, area under curve (AUC) values normalized to Cmpd 1 [1]: 126
- mouse IP-10, values normalized to Cmpd 1 [2]: 107
- human IL-8, values normalized to Cmpd 1 [3]: 118

Compound: O=C(CSc1nc2c([nH]c3ccccc32)c(=O)n1-c1ccccc1)NC1CCCCCCC1 [Compound 10, N-cyclooctyl-2-((4-oxo-3-phenyl-4,5-dihydro-3H-pyrimido[5,4-b]indol-2-yl)thio)acetamide]
- mouse IL-6, area under curve (AUC) values normalized to Cmpd 1 [1]: 114
- mouse IP-10, values normalized to Cmpd 1 [2]: 98
- human IL-8, values normalized to Cmpd 1 [3]: 73

Compound: O=C(CSc1nc2c([nH]c3ccccc32)c(=O)n1-c1ccccc1)NC1CCCC1 [Compound 11, N-cyclopentyl-2-((4-oxo-3-phenyl-4,5-dihydro-3H-pyrimido[5,4-b]indol-2-yl)thio)acetamide]
- mouse IL-6, area under curve (AUC) values normalized to Cmpd 1 [1]: 53
- mouse IP-10, values normalized to Cmpd 1 [2]: 52
- human IL-8, values normalized to Cmpd 1 [3]: 5

Compound: O=C(CSc1nc2c([nH]c3ccccc32)c(=O)n1-c1ccccc1)NC1CCC1 [Compound 12, N-cyclobutyl-2-((4-oxo-3-phenyl-4,5-dihydro-3H-pyrimido[5,4-b]indol-2-yl)thio)acetamide]
- mouse IL-6, area under curve (AUC) values normalized to Cmpd 1 [1]: 35
- mouse IP-10, values normalized to Cmpd 1 [2]: 66
- human IL-8, values normalized to Cmpd 1 [3]: 19

Compound: O=C(CSc1nc2c([nH]c3ccccc32)c(=O)n1-c1ccccc1)Nc1ccc2ccccc2c1 [Compound 18, N-(naphthalen-2-yl)-2-((4-oxo-3-phenyl-4,5-dihydro-3H-pyrimido[5,4-b]indol-2-yl)thio)acetamide]
- mouse IL-6, area under curve (AUC) values normalized to Cmpd 1 [1]: <1
- mouse IP-10, values normalized to Cmpd 1 [2]: <1
- human IL-8, values normalized to Cmpd 1 [3]: <1

Compound: O=C(CSc1nc2c([nH]c3ccccc32)c(=O)n1-c1ccccc1)NCc1ccco1 [Compound 19, N-(furan-2-ylmethyl)-2-((4-oxo-3-phenyl-4,5-dihydro-3H-pyrimido[5,4-b]indol-2-yl)thio)acetamide]
- mouse IL-6, area under curve (AUC) values normalized to Cmpd 1 [1]: 18
- mouse IP-10, values normalized to Cmpd 1 [2]: 26
- human IL-8, values normalized to Cmpd 1 [3]: 15

Compound: O=C(CSc1nc2c([nH]c3ccccc32)c(=O)n1-c1ccccc1)Nc1ccc2cn[nH]c2c1 [Compound 20, N-(1H-indazol-6-yl)-2-((4-oxo-3-phenyl-4,5-dihydro-3H-pyrimido[5,4-b]indol-2-yl)thio)acetamide]
- mouse IL-6, area under curve (AUC) values normalized to Cmpd 1 [1]: 3
- mouse IP-10, values normalized to Cmpd 1 [2]: <1
- human IL-8, values normalized to Cmpd 1 [3]: 7

Compound: O=C(CSc1nc2c([nH]c3ccccc32)c(=O)n1-c1ccccc1)Nc1nccs1 [Compound 21, 2-((4-oxo-3-phenyl-4,5-dihydro-3H-pyrimido[5,4-b]indol-2-yl)thio)-N-(thiazol-2-yl)acetamide]
- mouse IL-6, area under curve (AUC) values normalized to Cmpd 1 [1]: 1
- mouse IP-10, values normalized to Cmpd 1 [2]: <1
- human IL-8, values normalized to Cmpd 1 [3]: 5

Compound: CCNC(=O)CSc1nc2c([nH]c3ccccc32)c(=O)n1-c1ccccc1 [Compound 22, N-ethyl-2-((4-oxo-3-phenyl-4,5-dihydro-3H-pyrimido[5,4-b]indol-2-yl)thio)acetamide]
- mouse IL-6, area under curve (AUC) values normalized to Cmpd 1 [1]: <1
- mouse IP-10, values normalized to Cmpd 1 [2]: <1
- human IL-8, values normalized to Cmpd 1 [3]: 4

Compound: CCCCNC(=O)CSc1nc2c([nH]c3ccccc32)c(=O)n1-c1ccccc1 [Compound 23, N-butyl-2-((4-oxo-3-phenyl-4,5-dihydro-3H-pyrimido[5,4-b]indol-2-yl)thio)acetamide]
- mouse IL-6, area under curve (AUC) values normalized to Cmpd 1 [1]: 49
- mouse IP-10, values normalized to Cmpd 1 [2]: 61
- human IL-8, values normalized to Cmpd 1 [3]: 29

Compound: CCCCCNC(=O)CSc1nc2c([nH]c3ccccc32)c(=O)n1-c1ccccc1 [Compound 24, 2-((4-oxo-3-phenyl-4,5-dihydro-3H-pyrimido[5,4-b]indol-2-yl)thio)-N-pentylacetamide]
- mouse IL-6, area under curve (AUC) values normalized to Cmpd 1 [1]: 40
- mouse IP-10, values normalized to Cmpd 1 [2]: 40
- human IL-8, values normalized to Cmpd 1 [3]: 25

Compound: CCCCCCNC(=O)CSc1nc2c([nH]c3ccccc32)c(=O)n1-c1ccccc1 [Compound 25, N-hexyl-2-((4-oxo-3-phenyl-4,5-dihydro-3H-pyrimido[5,4-b]indol-2-yl)thio)acetamide]
- mouse IL-6, area under curve (AUC) values normalized to Cmpd 1 [1]: <1
- mouse IP-10, values normalized to Cmpd 1 [2]: <1
- human IL-8, values normalized to Cmpd 1 [3]: 7

Compound: CC(C)CNC(=O)CSc1nc2c([nH]c3ccccc32)c(=O)n1-c1ccccc1 [Compound 26, N-isobutyl-2-((4-oxo-3-phenyl-4,5-dihydro-3H-pyrimido[5,4-b]indol-2-yl)thio)acetamide]
- mouse IL-6, area under curve (AUC) values normalized to Cmpd 1 [1]: 44
- mouse IP-10, values normalized to Cmpd 1 [2]: 53
- human IL-8, values normalized to Cmpd 1 [3]: 11

Compound: CC(C)CCNC(=O)CSc1nc2c([nH]c3ccccc32)c(=O)n1-c1ccccc1 [Compound 27, N-isopentyl-2-((4-oxo-3-phenyl-4,5-dihydro-3H-pyrimido[5,4-b]indol-2-yl)thio)acetamide]
- mouse IL-6, area under curve (AUC) values normalized to Cmpd 1 [1]: 61
- mouse IP-10, values normalized to Cmpd 1 [2]: 62
- human IL-8, values normalized to Cmpd 1 [3]: 53

Compound: CC(C)(C)CCNC(=O)CSc1nc2c([nH]c3ccccc32)c(=O)n1-c1ccccc1 [Compound 28, N-(3,3-dimethylbutyl)-2-((4-oxo-3-phenyl-4,5-dihydro-3H-pyrimido[5,4-b]indol-2-yl)thio)acetamide]
- mouse IL-6, area under curve (AUC) values normalized to Cmpd 1 [1]: 99
- mouse IP-10, values normalized to Cmpd 1 [2]: 85
- human IL-8, values normalized to Cmpd 1 [3]: 95

Compound: CCC(C)CCNC(=O)CSc1nc2c([nH]c3ccccc32)c(=O)n1-c1ccccc1 (stereo not shown) [Compound 29, N-(3-methylpentyl)-2-((4-oxo-3-phenyl-4,5-dihydro-3H-pyrimido[5,4-b]indol-2-yl)thio)acetamide]
- mouse IL-6, area under curve (AUC) values normalized to Cmpd 1 [1]: 30
- mouse IP-10, values normalized to Cmpd 1 [2]: 45
- human IL-8, values normalized to Cmpd 1 [3]: 23

Compound: CCCC(C)NC(=O)CSc1nc2c([nH]c3ccccc32)c(=O)n1-c1ccccc1 (stereo not shown) [Compound 30, 2-((4-oxo-3-phenyl-4,5-dihydro-3H-pyrimido[5,4-b]indol-2-yl)thio)-N-(pentan-2-yl)acetamide]
- mouse IL-6, area under curve (AUC) values normalized to Cmpd 1 [1]: 12
- mouse IP-10, values normalized to Cmpd 1 [2]: 55
- human IL-8, values normalized to Cmpd 1 [3]: 6

Compound: CCC(CC)NC(=O)CSc1nc2c([nH]c3ccccc32)c(=O)n1-c1ccccc1 [Compound 31, 2-((4-oxo-3-phenyl-4,5-dihydro-3H-pyrimido[5,4-b]indol-2-yl)thio)-N-(pentan-3-yl)acetamide]
- mouse IL-6, area under curve (AUC) values normalized to Cmpd 1 [1]: 10
- mouse IP-10, values normalized to Cmpd 1 [2]: 26
- human IL-8, values normalized to Cmpd 1 [3]: <1

Compound: Cn1c2ccccc2c2nc(SCC(=O)NC3CCCCC3)n(-c3ccccc3)c(=O)c21 [Compound 42, N-cyclohexyl-2-((5-methyl-4-oxo-3-phenyl-4,5-dihydro-3H-pyrimido[5,4-b]indol-2-yl)thio)acetamide]
- mouse IP-10, values normalized to Cmpd 1 [2]: 99
- human IL-8, values normalized to Cmpd 1 [3]: 79

Compound: COC(=O)CCCn1c2ccccc2c2nc(SCC(=O)NC3CCCCC3)n(-c3ccccc3)c(=O)c21 [Compound 44, Methyl 4-(2-((2-(cyclohexylamino)-2-oxoethyl)thio)-4-oxo-3-phenyl-3H-pyrimido[5,4-b]indol-5(4H)-yl)butanoate]
- mouse IL-6, area under curve (AUC) values normalized to Cmpd 1 [1]: 4
- mouse IP-10, values normalized to Cmpd 1 [2]: 19

— patent US9505768B2, “Compositions and methods for modulating TLR4” (The Regents of the University of California, priority 2012, dated 2016)
